Data reported in US9809623B2, “α4β7 peptide monomer and dimer antagonists” (Protagonist Therapeutics, Inc., priority 2014, dated 2017).
Not every detail of the peptide structures is certain; ends, links or a residue may be inferred.

Test: Dithiothreitol (DTT) Redox Stability Assay
Type: physicochemical
Details: Table 4-C, t1/2, 0.5 mM DTT
Description: For each peptide tested, the DTT stability assay was conducted by adding 5 μl of a 10 mM peptide stock solution in DMSO to 1 ml of 100 mM Tris-Cl, pH 7.5 (final peptide concentration is 50 μM). At time 0 min, 5 ul of a freshly thawed 100 mM DTT solution was added to the incubation tube containing the peptide, such that the final DTT concentration was 0.5 mM. The reactions were incubated at room temperature. At different time points up to 120 minutes (20 min, 40 min, 80 min, 120 min), 50 ul aliquots were removed, and the reaction was quenched by adding 10 μl of 5M acetic acid. To measure disappearance of the parent peptide, the quenched samples (30 μl) were analyzed by reverse phase HPLC and UV absorbance at 220 nm. The fraction oxidized remaining was graphed versus time, and half-lives were calculated by fitting to a first-order exponential decay equation using Excel.

CC(=O)N[C@H]1CSSC(C)(C)[C@@H](C(=O)N[C@H](CCCCNC(=O)CN(CC(=O)NCCCC[C@@H](NC(=O)[C@H]2NC(=O)[C@H](CC(C)C)NC(=O)[C@H]([C@@H](C)O)NC(=O)[C@H](CC(=O)O)NC(=O)[C@H](CO)NC(=O)[C@H](CCCNC(=N)N)N(C)C(=O)[C@@H](NC(C)=O)CSSC2(C)C)C(N)=O)C(=O)CCN)C(N)=O)NC(=O)[C@H](CC(C)C)NC(=O)[C@H]([C@@H](C)O)NC(=O)[C@H](CC(=O)O)NC(=O)[C@H](CO)NC(=O)[C@H](CCCNC(=N)N)N(C)C1=O [compound 203, (Ac-C-N-Me-R-S-D-T-L-Pen-k-NH2)2-IDA]
DTT Min: 21 min
